Results from PubChem BioAssay (NCI).
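Compound exposure: 48 hours, 5 concentrations, 96-well plates. Abbreviation: GI50, concentration required for 50% inhibition of growth.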 For part of its entries the source gives two or more results. The list is limited to them. An entry can have further records. A record mostly stands for its own series of concentrations, which the source does not state; a value can be the end of its range.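 Definition used: TGI = concentration required for complete inhibition of growth.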 Signs of the kind (2×) stand for listed records that agree.

Columns and labels:
Assay in all cases: NCI tumour cell line growth inhibition, 48 h
[1] = system: 786-0 renal
[2] = system: A498 renal
[3] = system: A549 NSCLC
[4] = system: ACHN renal
[5] = system: CAKI-1 renal
[6] = system: CCRF-CEM leukemia
[7] = system: COLO 205 colon
[8] = system: DLD-1 colon
[9] = system: DMS 114 small cell lung
[10] = system: DMS 273 small cell lung
[11] = system: DU-145 prostate
[12] = system: EKVX NSCLC
[13] = system: HCC-2998 colon
[14] = system: HCT-116 colon
[15] = system: HCT-15 colon
[16] = system: HL-60(TB) leukemia
[17] = system: HOP-18 NSCLC
[18] = system: HOP-62 NSCLC
[19] = system: HOP-92 NSCLC
[20] = system: HS 578T breast
[21] = system: HT29 colon
[22] = system: IGROV1 ovarian
[23] = system: K-562 leukemia
[24] = system: KM12 colon
[25] = system: KM20L2 colon
[26] = system: LOX IMVI melanoma
[27] = system: M19-MEL melanoma
[28] = system: MALME-3M melanoma
[29] = system: MCF7 breast
[30] = system: MOLT-4 leukemia
[31] = system: NCI-H226 lung
[32] = system: NCI-H23 lung
[33] = system: NCI-H460 lung
[34] = system: NCI-H522 lung
[35] = system: NCI/ADR-RES ovarian
[36] = system: OVCAR-3 ovarian
[37] = system: OVCAR-4 ovarian
[38] = system: OVCAR-5 ovarian
[39] = system: OVCAR-8 ovarian
[40] = system: P388 leukemia
[41] = system: PC-3 prostate
[42] = system: RPMI-8226 leukemia
[43] = system: RXF 393 renal
[44] = system: SF-268 CNS
[45] = system: SF-295 CNS
[46] = system: SF-539 CNS
[47] = system: SK-MEL-2 melanoma
[48] = system: SK-MEL-28 melanoma
[49] = system: SK-MEL-5 melanoma
[50] = system: SK-OV-3 ovarian
[51] = system: SN12C renal
[52] = system: SN12K1 renal
[53] = system: SNB-19 CNS
[54] = system: SNB-75 CNS
[55] = system: SNB-78 CNS
[56] = system: SW-620 colon
[57] = system: U251 CNS
[58] = system: UACC-257 melanoma
[59] = system: UACC-62 melanoma
[60] = system: UO-31 renal
[61] = system: XF 498 CNS

COC1C(O)CC(OC2CC(Oc3cc4cc5c(c(O)c4c(O)c3C)C(=O)[C@@H](OC3CC(OC4CC(OC6CC(C)(O)C(OC(C)=O)C(C)O6)C(O)C(C)O4)C(O)C(C)O3)[C@H]([C@H](OC)C(=O)[C@@H](O)[C@@H](C)O)C5)OC(C)C2OC(C)=O)OC1C (some centres undefined)
TGI [1]: 2.05 nM [mean of 3 tests] and 115 nM [mean of 4 tests] | TGI [2]: 0.0228 nM, 0.0551 nM, 14.8 nM | TGI [3]: 0.521 nM, 7.06 µM, 43.2 µM | TGI [4]: 3.92 nM and 255 nM | TGI [5]: 0.884, 1.97, 673, 26 nM | TGI [6]: 0.207, 0.661, 310, 35 nM | TGI [7]: 0.103 nM [mean of 4 tests] and 0.00946 nM [mean of 5 tests] and 6.44 nM [mean of 6 tests] | TGI [8]: 5.03 µM and 174 nM | TGI [9]: 0.0977 nM and 6.28 nM | GI50 [10]: 0.00394 nM [mean of 4 tests] and 2.83 nM [mean of 5 tests] | TGI [10]: 0.0897 nM [mean of 4 tests] and 4.6 nM [mean of 5 tests] | TGI [11]: 2.66 nM and 1.02 µM | TGI [12]: 0.0976, 0.642, 37.4, 58.5 nM | TGI [13]: 0.0263 nM, 0.0745 nM, 4.13 nM, < 11 nM | TGI [14]: 7.44 nM, 9.49 µM, 2.66 µM | TGI [15]: 5.21 nM, 5.85 µM, 5.91 µM | TGI [16]: 0.215, 0.163, 32.9, 20.3 nM | TGI [17]: 0.475 nM and 215 nM | TGI [18]: 0.044 nM, 0.214 nM, 8.71 nM | TGI [19]: 0.0307 nM, 0.172 nM, 8.32 nM, < 11.5 nM | TGI [20]: 0.0725 nM and 18.4 nM | TGI [21]: 0.557 nM, 611 nM, 1.08 µM | TGI [22]: 0.162 nM, 19.8 µM, 3.05 µM | TGI [23]: 0.299 nM, 0.621 nM, 1.38 µM, 4.53 µM | TGI [24]: 1.01 nM [mean of 3 tests] and 0.0597 nM [mean of 4 tests] and 146 nM [mean of 6 tests] | TGI [25]: 0.365 nM, 249 nM, < 14 nM | TGI [26]: 0.134 nM, 51 nM, < 10.7 nM | TGI [27]: 0.0363 nM and 37.2 nM | TGI [28]: 0.00564 nM, 0.0911 nM, 6.4 nM | TGI [29]: 0.233 nM and 1.6 µM | TGI [30]: 0.0823, 0.159, 194, 121 nM | TGI [31]: 0.0174 nM, 1.96 nM [mean of 3 tests] and 10.8 nM [mean of 4 tests] | TGI [32]: 0.0249 nM, 0.213 nM [mean of 4 tests] and 196 nM [mean of 5 tests] | TGI [33]: 0.876, 0.308, 195, 116 nM | TGI [34]: 0.179 nM, 0.0409 nM, 6.67 nM | TGI [35]: 0.692 nM, 1.71 nM, 11.6 µM, 39.5 µM | TGI [36]: 0.0255 nM, 0.286 nM, 145 nM, < 46.4 nM | TGI [37]: 0.474, 0.294, 13.9, 15 nM | TGI [38]: 0.696 nM, 55.2 nM, 14.1 nM | TGI [39]: 0.0251, 0.586, 24.5, 215 nM | GI50 [40]: 0.0129 nM [mean of 4 tests] and 5.02 nM [mean of 5 tests] | TGI [40]: < 37.9 nM [mean of 2 tests] and 0.0845 nM [mean of 4 tests] and 123 nM [mean of 5 tests] | TGI [41]: 0.898 nM and 12.3 nM | TGI [42]: 0.149, 0.151, 8.61, 367 nM | TGI [43]: 0.0138 nM, 0.0238 nM, 5.14 nM | TGI [44]: 0.362, 0.532, 227, 12.1 nM | TGI [45]: 0.0232 nM, 0.426 nM, 23.6 nM (2×) | TGI [46]: 0.027 nM, 0.252 nM, 4.16 nM | TGI [47]: 0.00501 nM, 0.0308 nM, 6.81 nM | TGI [48]: 0.513 nM, 0.0732 nM, 6.1 nM | TGI [49]: 0.013 nM [mean of 3 tests] and 0.0258 nM, 7.89 nM [mean of 4 tests] | TGI [50]: 2.39 nM, 4.14 µM, 8.78 µM | TGI [51]: 1.12 nM, 460 nM, 3.7 µM | TGI [52]: 0.0317 nM [mean of 3 tests] and 79.4 nM [mean of 4 tests] | TGI [53]: 0.453 nM, 1.08 nM, 25 µM, 6.41 µM | TGI [54]: 0.0685 nM [mean of 3 tests] and 0.0173 nM [mean of 4 tests] and 6.14 nM [mean of 6 tests] | TGI [55]: > 84.4 µM [mean of 3 tests] and 418 nM [mean of 6 tests] | TGI [56]: 0.0265 nM, 9.41 µM, 2.6 µM | TGI [57]: 1.4 nM, 712 nM, 1.6 µM | TGI [58]: 0.143 nM [mean of 3 tests] and 0.0462 nM [mean of 4 tests] and 11.4 nM [mean of 6 tests] | TGI [59]: 0.0196 nM, 0.0349 nM, 4.7 nM | TGI [60]: 0.188, 1.87, 510, 111 nM | TGI [61]: 0.00832 nM and 5.61 nM

CN1CCCN(CCNc2nccc(-c3c(-c4cccc(O)c4)nc4sccn34)n2)S1(=O)=O
GI50 [39]: 7 µM and 177 nM | TGI [39]: 63.2 µM and 5.53 µM | TGI [58]: 2.57 µM [1 test] and > 35.7 µM [mean of 2 tests]

COc1cc(C2c3cc4c(cc3[C@@H](Nc3ccc(N(C)C)cc3)[C@H]3COC(=O)C23)OCO4)cc(OC)c1O (some centres undefined)
TGI [6]: 75 µM and 741 nM | TGI [30]: 872 nM and 13 µM | TGI [31]: 438 nM and 7.68 µM
